Experimental data reported in paper PMC4336329 (PLoS ONE, 2015).
Screen size: about 310,000 compounds; about 14,000 (4.5%) showed an effect of 50% or more. Effects have a minus sign here. The list shows a part of the results.

Molecular target: human ether-à-go-go-related gene (hERG) potassium channel (human, UniProt Q12809)
Assay: primary screen, population patch clamp on CHO cells stably expressing hERG
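Note: peak tail current of the secondary pulse compared with the same well before compound.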

Chain of human ether-à-go-go-related gene (hERG) potassium channel (Q12809 whole entry, looked up): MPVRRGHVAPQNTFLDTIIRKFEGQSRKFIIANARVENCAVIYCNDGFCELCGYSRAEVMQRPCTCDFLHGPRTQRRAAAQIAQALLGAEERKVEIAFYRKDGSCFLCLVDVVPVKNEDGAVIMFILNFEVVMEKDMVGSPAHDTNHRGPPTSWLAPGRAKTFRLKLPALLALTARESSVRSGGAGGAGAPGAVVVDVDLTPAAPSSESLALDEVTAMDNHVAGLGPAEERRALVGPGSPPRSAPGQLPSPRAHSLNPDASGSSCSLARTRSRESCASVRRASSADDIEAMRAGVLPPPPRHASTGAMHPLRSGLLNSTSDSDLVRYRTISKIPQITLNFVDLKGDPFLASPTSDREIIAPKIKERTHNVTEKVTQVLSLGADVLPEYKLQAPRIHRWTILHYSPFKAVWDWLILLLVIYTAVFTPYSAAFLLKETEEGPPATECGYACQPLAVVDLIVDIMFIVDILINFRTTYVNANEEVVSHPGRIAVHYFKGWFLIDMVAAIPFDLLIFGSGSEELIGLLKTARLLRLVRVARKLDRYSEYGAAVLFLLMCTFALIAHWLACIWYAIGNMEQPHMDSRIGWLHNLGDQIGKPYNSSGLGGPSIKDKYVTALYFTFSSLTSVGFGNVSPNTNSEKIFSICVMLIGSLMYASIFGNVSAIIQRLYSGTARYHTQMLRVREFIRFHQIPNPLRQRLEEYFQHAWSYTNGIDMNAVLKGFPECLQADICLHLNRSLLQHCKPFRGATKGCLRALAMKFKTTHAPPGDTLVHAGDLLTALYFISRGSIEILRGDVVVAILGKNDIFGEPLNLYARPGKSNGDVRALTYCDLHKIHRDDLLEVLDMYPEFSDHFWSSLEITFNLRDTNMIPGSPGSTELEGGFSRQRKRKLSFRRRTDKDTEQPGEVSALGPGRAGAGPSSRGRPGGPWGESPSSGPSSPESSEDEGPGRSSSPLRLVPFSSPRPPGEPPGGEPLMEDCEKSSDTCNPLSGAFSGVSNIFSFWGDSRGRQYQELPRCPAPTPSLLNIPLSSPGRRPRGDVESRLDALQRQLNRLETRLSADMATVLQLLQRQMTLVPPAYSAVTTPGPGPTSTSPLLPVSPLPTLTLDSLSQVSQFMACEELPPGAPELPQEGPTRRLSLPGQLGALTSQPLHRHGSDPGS

SMILES | hERG current change (%, negative = inhibition) at 10uM
COc1cc(NC(=O)c2ccc(COc3ccccc3Br)o2)cc(OC)c1OC | -3.81%
COc1ccc(C(=O)Nc2ccc3nc(N4CCN(C)CC4)cc(C)c3c2)c(OC)c1 | -0.388%
COc1ccc2c(c1)c(C(=O)CN1CCN(C(=O)c3ccco3)CC1)c(C)n2C | 8.19%
Cc1ccc(C)c(NS(=O)(=O)c2cc(C(N)=O)ccc2C)c1 | -4.37%
O=C(NC[C@@H]1CCCO1)c1cccc2c1C(=O)c1ccc(Cl)cc1S2(=O)=O | -16.2%
CCOc1cc(/C=N/NC(=O)Cc2ccc(C(F)(F)F)cc2[N+](=O)[O-])c(Br)cc1OC | 8.3%
O=[N+]([O-])c1cc(/C=N/NC(=S)Nc2ccccc2Cl)ccc1Cl | 35.6%
N#C/C(=C\c1ccc(/C=C(/C#N)c2nn(CCO)c(N)c2C#N)cc1)c1nn(CCO)c(N)c1C#N | 11.7%
C/[N+]([O-])=C\CC(=O)c1ccc(-c2ccccc2)cc1 | 15%
O=[N+]([O-])c1ccn(-c2nc(-c3cccs3)cc(C(F)(F)F)n2)n1 | 2.54%
CN1C(=O)c2ccc(C(=O)NCc3ccco3)cc2C1=O | 13.2%
O=C1CN(C(=O)c2cc(Br)c(Br)s2)c2ccccc2N1 | 13%
CC1CC(C)CN(C(=O)Cn2c(=O)oc3cc(S(=O)(=O)N4CCCC4)ccc32)C1 (stereo not shown) | -3.39%
COc1ccc(NC(=O)COC(=O)CC23CC4CC(CC(C4)C2)C3)c([N+](=O)[O-])c1 | 15.7%
Cc1onc(C(=O)NCc2ccc(F)cc2)c1[N+](=O)[O-] | -1.77%
O=C(NCc1ccccc1)C1=C[C@@H](c2ccc(Br)cc2)C[C@@H](OCc2ccc(CO)cc2)O1 | -9.5%
CCN1CCN(c2oc(/C=C/c3ccccc3)nc2C#N)CC1 | -63.1%
Cc1ccc(-c2noc(Cn3cc(S(=O)(=O)N4CCCC4)ccc3=O)n2)cc1 | 8.62%
COC(=O)c1ccc(NC(=O)C2CC(=O)OC2c2ccccc2)cc1 (stereo not shown) | 5.94%
O=C(CCCOc1ccccc1)NC1CCCc2ccccc21 (stereo not shown) | -13.1%
O=C(C1CCC1)N1CCCc2cc(S(=O)(=O)N3CCN(c4ccccc4)CC3)ccc21 | -0.703%
CCCNC(=O)C1(CC2CC(c3ccccc3)=NO2)CCN(C(=O)C2CCCC2)CC1 (stereo not shown) | -41.8%

SMILES | hERG current change (%, negative = inhibition) at 10uM
Cc1ccccc1NC(=O)Cn1c(=O)n(C)c2ccccc21 | -8.49%
CC(C)Cc1nnc(NC(=O)Cc2ccc([N+](=O)[O-])cc2)s1 | 0.955%
OCc1nc2ccccc2n1CC(O)COc1ccccc1 (stereo not shown) | 6.25%
COc1ccc(-c2nc(CS(=O)CC(=O)NC3CCCCCC3)c(C)o2)cc1 (stereo not shown) | 10.6%
O=C(Nc1ccc2c(c1)OCCO2)c1cccnc1Oc1ccc(Cl)cc1 | 7.21%
CN1CCCC(OC(=O)CCCCC(=O)OC2CCCN(C)C2)C1.Cl (stereo not shown) | 2.04%
Cc1ccc2c(c1)N(CC(=O)NCCCc1ccccc1)C(=O)c1cccnc1O2 | -17.4%
O=[N+]([O-])c1ccc(N2CCN(c3ccc(F)cc3)CC2)nc1 | -8.33%
COc1ccc(CC2(CO)CCN(Cc3cnn(-c4ccc(F)cc4)c3)CC2)cc1 | -76.4%
O=C1CCCN1CC(O)CS(=O)(=O)c1ccccc1 (stereo not shown) | 26.1%
Cc1ccc(NC(=O)NC2(C(=O)NCc3ccccc3)CCCCC2)cc1 | -3.97%
O=C1c2cccc3cccc(c23)C(=O)C1(O)O | -13.8%
CCC1(c2ccccc2)NC(=O)N(CC(=O)Nc2ccccc2C(=O)NC2CCCC2)C1=O (stereo not shown) | -53.8%
Cc1cc(C(F)(F)F)n2nc(-c3cnn(C)c3C(F)(F)F)c(Cl)c2n1 | -10.3%
CCOC(=O)c1ccc(NC(=O)CN2CCN(c3ccccc3)CC2)cc1 | 5.34%
O=C1CSC(c2ccc(F)cc2)N1c1nc2ccccc2s1 (stereo not shown) | -20.8%
CC(C)c1ccccc1NC(=S)N1CCN(Cc2ccc3c(c2)OCO3)CC1 | -13.5%
CCc1cc(=O)oc2c(C)c(OCC(=O)NC3CC(C)(C)NC(C)(C)C3)ccc12 | 6.12%
COc1ccc(C(=O)NNC(=O)CSc2nnc(COc3ccccc3)n2C)cc1 | -4.17%
C[C@@H](C(=O)NC1CCCC1)N1C(=O)N2CCc3c([nH]c4ccccc34)[C@@]2(C)C1=O | -27.5%
Cc1cnc(C(=O)OCC(=O)NC(C)C)cn1 | 8.77%
